Measurements from the supplement of paper PMC11417369.
± gives the standard deviation of the averaged measurements. The list shows a part of the results.

Tested on: PfAP2-I AP2 domain 3 (GST-tagged)
Experiment: gcPBM binding intensity (ln(normalized median fluorescence intensity)); higher = stronger DNA binding
Procedure, shortened: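 An Agilent 4 × 180k array carrying primer-extended double-stranded 36-bp intergenic genomic probes and negative controls received GST-tagged P. falciparum DNA-binding domains expressed in E. coli, about 25 μg on average, for 1 h. The binding buffer contained 1× PBS, 1% milk, 0.2 mg/ml BSA, 0.5% salmon testes DNA and 0.03% Triton X-100. Binding intensity is the top Masliner-normalised natural-log median intensity across replicate spots of either probe orientation, read after Alexa488 anti-GST antibody staining and a 488 nm scan.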

Sequence	gcPBM binding intensity (ln)
GCTATAAATACAGACGCACACATATACATACATATA [CACACA_site3329]	8.38 ± 0.41
TTAAAATTAAAAATAGGTACACATATGAACAAGGAC [XGTACX_site1180]	8.8 ± 0.49
TTATATGATATATGACGTACATATTAATAACATCTA [XGTACX_site6716]	7.87 ± 0.25
TGTAATATTTTATAAAGTACATTATAATATAATTCA [XGTACX_site2961]	7.48 ± 0.27
AGATTGAAATATAGTTGTACAAATATTTTAAAACAT [XGTACX_site3026]	7.89 ± 0.61
CAATCAACAAAACATACACACACATATATATATATA [CACACA_site8979]	9.26 ± 0.38
TTGTTCCAATAAAATCGTACAATTAAACAACCAAAC [XGTACX_site5759]	8.29 ± 0.43
TTTTTTTCTATAATACACCAGAAAAAAAAATTAAAA [TGCATGCA_negctrl_site257]	8.47 ± 0.28
CATATCTCTTATTAATGTACATTTTTAAAAGTAAAT [XGTACX_site2847]	7.66 ± 0.4
TTTATATAATGGAAAAGTACTCAGGAAATTTATACA [XGTACX_site3635]	7.79 ± 0.45
CTTTTTTTTATGAACAGTACAGAAATATATATATAC [XGTACX_site5613]	7.79 ± 0.64
CAAGAACAAAAAATATGTACATATAATTATATATAT [XGTACX_site2082]	8.16 ± 0.52
ATTGATACATCCAATACACACTACATATAATGATGT [CACACA_site8561]	7.68 ± 0.52
TTTTTTATATATACATATATATAAATATATATAACT [GTGCAC_negctrl_site385]	7.45 ± 0.57
ATATTAATAATATATGCATGCATTAACATATTGAAA [TGCATGCA_site951]	8.12 ± 0.53
GTATGTATGTATATATGTACACATTATTATTTAATG [XGTACX_site5802]	8.44 ± 0.46
GAGAAAAGGAAATTCACACATATAAAGAAAGATCTA [CACACA_site5420]	7.39 ± 0.56
TTTTTGTTCTATATGGTGCATGTTTATATTCGTATT	9.51 ± 0.14
ATTAGCAACATTGATAAATATAAACACACGAAAACA [TGCATGCA_negctrl_site97]	8.09 ± 0.68
CATGTTTATGCCGTTTGTACATATATATCTAAAAAA [XGTACX_site4336]	7.99 ± 0.45
CACGTATATATATATACACACACATATATATATGTA [CACACA_site7948]	8.01 ± 0.46
ATACCATAAATATTGTGTACATAAATATGTTAGTAA [XGTACX_site6077]	7.92 ± 0.38

Sequence	gcPBM binding intensity (ln)
TTTTAGAAATTTACTAAACTTTATATAACTATTGAA [TGCATGCA_negctrl_site280]	7.51 ± 0.47
GTTCATATCTTTTGAGCACACATATATATATATAAA [CACACA_site9099]	8.53 ± 0.26
ATGATTATAATTTAAAATATTTTACATAACCATTTC [GTGCAC_negctrl_site297]	7.67 ± 0.59
TTTAGCTATTATAGCTGTACAATGATAAAATAAATT [XGTACX_site6318]	7.67 ± 0.57
ATAAGTAAAAATAAAAAAAAAATATATATATATATA [CACACA_negctrl_site1816]	9.35 ± 0.36
AATGAATCCTTATATACACACATTATTATATTATAT [CACACA_site3108]	8.03 ± 0.71
TATTCCTAATTGACAACACACACAACAAAAAAGGGA [CACACA_site8350]	8.3 ± 0.52
ATTATTAACATATATATACACACGAAAAAATTATAT [CACACA_site625]	8.01 ± 0.67
TAATGAAATATTATGTGTACTTAAAAATTATTAAAT [XGTACX_site5261]	7.75 ± 0.42
AGAATTATTTTATGTTTGCACTTTTTTTTTCTATAA [GTGCAC_site9876]	9.48 ± 0.44
CTATAATATGGTATTACACACTGTTATAAGTATGGC [CACACA_site7068]	7.78 ± 0.57
TATAAATAGAGACACACACACATATAAATAAATATT [CACACA_site7854]	7.77 ± 0.49
TATATTTCTTCTATAACATGCAGATATATGAAAATA [TGCATGCA_site971]	7.89 ± 0.69
ATATATTTTTTGAATACACACATATTATCTGTAATA [CACACA_site4826]	7.79 ± 0.8
CGAACACAAACACAAACACACATCAGATATAAATAT [CACACA_site6736]	7.75 ± 0.4
TGTTTGCTTATGTGTTAAATATATATATATATATAT [TGCATGCA_negctrl_site218]	9.45 ± 0.39
ATTTTAGGAAAAAAAAGTACATATAATTTTTTATAT [XGTACX_site6954]	7.68 ± 0.27
TTTTTTTTGATATATACACACAATAAATAAATATAA [CACACA_site7400]	7.78 ± 0.39
ATTTATTATTATATCACACATAATATATTAAATGAT [CACACA_site5821]	7.62 ± 0.54
AAAAATATAAAAATAGCACACATATATACATATATA [CACACA_site7901]	7.87 ± 0.3
TATGGAGAAATAAATAGTACGTATTTTATTTAAAAA [XGTACX_site3129]	7.75 ± 0.6
CTTGCAAAAAGTATATGTACATATATATATATATAT [XGTACX_site5792]	9.46 ± 0.32

Sequence	gcPBM binding intensity (ln)
ATGTTCGATGATAAATGTACAAAAATAATGGAAGTA [XGTACX_site1916]	8.34 ± 0.62
TATAAAAATATTGAAAGTACTTATTAAAATATTATT [XGTACX_site3701]	7.53 ± 0.41
TTTCCTAGCACATGCACACAAAAAAAAAAAAAAAAA [CACACA_site1404]	8.6 ± 0.14
AAAAATAAAGAAACAGGTACGCATATATTAAGATAT [XGTACX_site8097]	7.98 ± 0.78
AATATATTCCACATGTGTACATATATATATATATAT [XGTACX_site8006]	9.43 ± 0.13
TTTCCTTCTACAAAAAATTTTATCAAGAGGAAGTAC [CACACA_negctrl_site926]	7.89 ± 0.4
CCATAGATATTTTATACACACATATAATATATTAAG [CACACA_site4363]	7.63 ± 0.49
ATATGCAAAGAGTATAATCAAAATGTAAATAAATAA [GTGCAC_negctrl_site141]	8.01 ± 0.9
AATATTATTTATATTTGTACACAGTAATATAAAATA [XGTACX_site4884]	7.63 ± 0.38
TTATAAAGAACACAGACACACAAAGAAAGAACCAAT [CACACA_site4175]	8.27 ± 0.57
CACAAATAAATACATACACACATATATACTCATATA [CACACA_site4379]	7.71 ± 0.2
TGGGCGTCATAATGAACACACAATTATATTATGACT [CACACA_site3910]	7.51 ± 0.51
TTACACAAATAGCTGCATTTATAAAATACAATTAAA [CACACA_negctrl_site241]	8.01 ± 0.3
AAATATATATATTTACGTACATATATACAAATAGAG [XGTACX_site6067]	8.38 ± 0.25
TTTTGTCAATTTTAGATTTTTCAATACATGGATATT [CACACA_negctrl_site319]	7.27 ± 0.64
ATATATATATATTTATGTACGAATATGTTTAATTTA [XGTACX_site3986]	9.31 ± 0.33
ATATATATAATAATATGTACGGAAAAAGCTTAAGCT [XGTACX_site5661]	8.17 ± 0.51
AATACATATAAAAGTACACACACACCCATATATATA [CACACA_site8220]	8.47 ± 0.71
ATAGAATACATATATGAACACACAGAGTTTTAAAAA [CACACA_site8879]	7.69 ± 0.47
TATATTATATATATGTGTACATATAAATGTAACAAA [XGTACX_site5025]	7.67 ± 0.34
TTTTTTTTTTGATGTTGTACATATATACTATATAAT [XGTACX_site1332]	7.92 ± 0.66
GAAAATAAAAAAAATAAAAAAAATAAAAAAAATTAT [XGTACX_negctrl_site443]	7.54 ± 0.91

Sequence	gcPBM binding intensity (ln)
TTTTGTAACCTATGCACGCACACAAGAAAAAAACAA [CACACA_site3776]	9.17 ± 0.042
TAAATATCTAAAGACTGTACAATTAAATATAAACAT [XGTACX_site1450]	7.72 ± 0.56
AGTTTATTTGTAAAAAGTACATATTTAAGAAAACTT [XGTACX_site2318]	7.88 ± 0.33
AAATTTGGCAAACACACACACACACCCACACCCACA [CACACA_site8095]	8.11 ± 0.21
TTCTAACTCTAACAAGTGCAATATATATACATAATA	10.5 ± 0.18
AATATATATCATCACACACACATACATAAATATATA [CACACA_site184]	8 ± 0.43
AGAGAAAGAAGGGAGAAAAAATAAAATAAAATAAAA [GTGCAC_negctrl_site299]	7.89 ± 0.65
AATAAAAAAAAACTCATGCACACAATATTATGAAAA [CACACA_site664]	8.03 ± 0.44
TGCATATGCATTATTTGTACATATGTAGATAATTAT [XGTACX_site6930]	8.21 ± 0.47
CATATATAGATATATACACACATACATACATACATA [CACACA_site7748]	7.97 ± 0.81
AAAAATTACAAATACAAACACACAAATGTTTTTCAT [CACACA_site3551]	7.6 ± 0.42
AATAAAATAAATATATGTACATATATATAACCATTA [XGTACX_site5549]	7.59 ± 0.38
TTGACATATAAGATATGTACTAATACACACACATAT [XGTACX_site1904]	7.92 ± 0.42
AAATAATAAAACAACACACAAATAGTTAAAATAGAA [CACACA_site5007]	7.82 ± 0.54
ACATTCTATATATACACACATACATAATAAAGAAAG [CACACA_site2771]	8.05 ± 0.45
TTTTAATGATATATGAGTACACATTGTTTTTTATAA [XGTACX_site1072]	7.86 ± 0.41
ATATAATGATGGAAAAGAAAAGAAATAAAAAAAAAA [CACACA_negctrl_site1170]	7.82 ± 0.83
AAATGGTAAGAAAATAAATAAAGTTCTACCACATAA [CACACA_negctrl_site1542]	7.93 ± 0.52
ATATATATATATATATATATATATGTTTGATTTTTT [XGTACX_negctrl_site98]	9.22 ± 0.49
ATTTTTCTTTTATTAACACACATATAAATAAATACA [CACACA_site2876]	8.07 ± 0.52
TAGAAAGAATATAATTGTACAAATGTTGATAGATAA [XGTACX_site7259]	8.07 ± 0.52
TATAAACCATAATTAACACACAAAATAAGTTACATA [CACACA_site3227]	7.64 ± 0.6
